Experimental data reported in patent US20250041437A1, “HUMANIZED MUC1 ANTIBODY AND ANTIBODY DRUG CONJUGATE” (Sun Pharma Advanced Research Company Limited, priority 2023, published 2025).
Read-outs that look alike come from different tables or passages of the source.

How the values were obtained:
[1] = Single dose pharmacokinetics, COLO357 tumor bearing mouse, IV; assay type: in vivo; conditions: uMMAE, HM5LM4-ADC 3 mg/kg IV
Protocol: The objective of this study was to evaluate serum, tumor and liver pharmacokinetics of TAB, CAB and uMMAE following 3 mg/kg single IV administration of M5LM4-ADC and pharmacokinetics of MMAE following 0.06 mg/kg single IV administration of MMAE alone in a COLO357 tumor bearing mouse model.
The blood samples were collected from the mouse at 0.083, 0.5, 1, 2, 4, 8, 24, 48, 72, 96, 168 and 336 hours post-dose (n=3 mice/time point; sparse sampling design) through retro-orbital plexuses and serum was immediately harvested. At 24, 48, 72, 96, 168 and 336 hour time-points, the tumor and liver were collected. Analysis of total antibody (TAB) and conjugated antibody (CAB) was done by a fit for purpose ELISA based method and analysis of free payload (MMAE) was done by a fit for purpose LC-MS/MS based method. Pharmacokinetic analysis was performed by the non-compartmental analysis tool of Phoenix WinNonlin® software.

[2] = test system: BxPC3 pancreatic carcinoma cells; assay: Growth inhibition of human cancer cell lines, BxPC3
[3] = Single dose pharmacokinetics, COLO357 tumor bearing mouse, IV and IP 10 mg/kg; assay type: in vivo
HT-29 cells = assay: Growth inhibition of human cancer cell lines, HT-29; assay type: cell-based; conditions: HT-29, no MUC1 expressing
Protocol: Human cancer cell lines (such as Colo357, HT29, SKOV3, BxPC3 and T47D) were seeded at 5000 cells/well in a 96-well plate flat bottom clear plate and allowed to adhere overnight. Next day, antibody/ADCs were added to these cells at the mentioned concentration or at a mentioned concentration range. Post 5-7 days of treatment, 20 μl of presto blue dye was added to wells and absorbance was recorded at 570 nm (600 nm reference wavelength). Percent survival was calculated against wells containing untreated cells in complete media and IC50 was calculated in Graphpad Prism.

[4] = test system: COLO 357 derived xenograft; conditions: mouse, in vivo
[5] = biological target: T1, recombinant human MUC1-SEA (Homo sapiens, UniProt P15941); assay: Binding strength by Surface Plasmon Resonance (SPR)
T1 construct: on recombinant human MUC1-SEA on SPR; purchased Acrobiosystems MU1-H52H9
T1 sequence (P15941 1039-1148 limits assumed): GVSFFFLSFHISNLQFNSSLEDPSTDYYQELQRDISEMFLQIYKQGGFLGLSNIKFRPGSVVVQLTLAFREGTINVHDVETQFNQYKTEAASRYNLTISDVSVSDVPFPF
Protocol: Binding strength assessment using Surface Plasmon Resonance (SPR): MUC1 antigen (Acrobiosystems, Cat: MU1-H52H9) was captured on the anti-His immobilized on CM5 chip at 5 μl/min flow rate for 60 s. Post this concentration range of 0-50 nM of antibody or ADC is passed over MUC1 antigen at a flow rate of 30 μl/min flow rate for 120 s, keeping dissociation time of 1800 s at 25°. The dose response generated is evaluated on BIAevaluation software for the calculation of affinity of antibody to antigen as measured by dissociation constant (KD).

[6] = biological target: T2, MUC1-SEA on COLO-357 cells (Homo sapiens, UniProt P15941); assay: Dose dependent binding by flow cytometry on COLO357 cell line
T2 construct: endogenous in cells; host or cells: SKOV3, COLO357, HT29 (human cancer cell lines)
T2 sequence (P15941 24-1255): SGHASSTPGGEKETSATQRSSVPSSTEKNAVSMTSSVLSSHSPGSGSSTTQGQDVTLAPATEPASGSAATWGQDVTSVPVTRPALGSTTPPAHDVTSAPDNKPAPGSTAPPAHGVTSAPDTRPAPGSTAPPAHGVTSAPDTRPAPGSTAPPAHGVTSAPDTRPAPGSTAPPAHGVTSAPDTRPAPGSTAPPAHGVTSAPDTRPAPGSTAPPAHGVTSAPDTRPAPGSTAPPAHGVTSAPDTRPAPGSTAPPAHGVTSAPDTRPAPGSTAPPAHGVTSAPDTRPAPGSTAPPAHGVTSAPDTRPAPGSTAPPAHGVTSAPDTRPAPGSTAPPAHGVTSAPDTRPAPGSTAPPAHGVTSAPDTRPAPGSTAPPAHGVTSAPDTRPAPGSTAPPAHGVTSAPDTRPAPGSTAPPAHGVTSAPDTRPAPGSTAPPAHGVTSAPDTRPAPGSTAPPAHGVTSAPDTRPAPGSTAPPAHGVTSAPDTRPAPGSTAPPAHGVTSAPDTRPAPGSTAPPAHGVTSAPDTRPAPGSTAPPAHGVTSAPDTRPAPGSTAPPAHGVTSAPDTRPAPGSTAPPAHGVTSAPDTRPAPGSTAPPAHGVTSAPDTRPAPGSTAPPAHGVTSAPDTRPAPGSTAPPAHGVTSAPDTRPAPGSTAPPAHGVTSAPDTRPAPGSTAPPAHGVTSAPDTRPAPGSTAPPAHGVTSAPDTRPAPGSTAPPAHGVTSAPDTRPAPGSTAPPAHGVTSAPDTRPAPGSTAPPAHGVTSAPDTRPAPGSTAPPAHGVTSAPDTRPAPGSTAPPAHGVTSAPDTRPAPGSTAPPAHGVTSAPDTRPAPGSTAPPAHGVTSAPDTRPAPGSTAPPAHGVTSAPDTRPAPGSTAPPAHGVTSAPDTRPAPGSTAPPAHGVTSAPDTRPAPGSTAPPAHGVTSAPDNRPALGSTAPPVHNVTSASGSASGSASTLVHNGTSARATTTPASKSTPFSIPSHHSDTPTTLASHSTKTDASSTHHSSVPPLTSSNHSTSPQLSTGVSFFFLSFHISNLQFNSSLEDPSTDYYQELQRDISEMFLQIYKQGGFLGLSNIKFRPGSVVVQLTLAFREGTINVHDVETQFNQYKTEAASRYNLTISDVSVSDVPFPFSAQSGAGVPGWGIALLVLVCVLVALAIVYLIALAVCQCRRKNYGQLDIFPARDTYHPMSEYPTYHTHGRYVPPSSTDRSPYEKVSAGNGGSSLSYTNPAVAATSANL

B1: HM5LM4-ADC: humanized IgG anti-MUC1-SEA mAb HM5-LM4 conjugated to MC-Val-Cit-PABC-MMAE (conjugate)
heavy: EIQLVQSGAEVKKPGSSVKVSCKVTGHSITRGSSWHWMRQAPGQGLEWIGYIHYGGGTSYNPSLKSRITITRDTSTNTFYMELSSLRSEDTAFYFCARYSYDITYRWFFDVWGQGTLVTVSSASTKGPSVFPLAPSSKSTSGGTAALGCLVKDYFPEPVTVSWNSGALTSGVHTFPAVLQSSGLYSLSSVVTVPSSSLGTQTYICNVNHKPSNTKVDKRV[gap - human IgG1 Fc]
light: DIQMTQSPSTLSASVGDRVTITCRASQNIGTSIHWYQQKPGKAPKLLIKYASESISGVPSRFSGSGSGTEFTLTISSLQPDDFATYYCQQNNNWPLTFGQGTKVEIKRTVAAPSVFIFPPSDEQLKSGTASVVCLLNNFYPREAKVQWKVDNALQSGNSQESVTEQDSKDSTYSLSSTLTLSKADYEKHKVYACEVTHQGLSSPVTKSFNRGEC
modifications: non-natural residues
notes: humanized IgG anti-MUC1-SEA mAb HM5-LM4 conjugated to MC-Val-Cit-PABC-MMAE
Work on B1 yielded an AUC0-336 ([1]; serum) of 0.07 µM·h, an AUCINF ([1]; serum) of 0.071 µM·h and a Cmax ([1]; serum) of 8 nM. It also gave a T1/2 ([1]; serum) of 37 h, a Tmax ([1]; serum) of 0.5 h and an AUC0-336 ([1]; tumor) of 16.82 µM·h. The Cmax ([1]; tumor) was 84 nM, the T1/2 ([1]; tumor) was 70 h and the “ADC IC50” value ([2]; BxPC3, 5-7 days) was 0.62 µg/mL. For the same molecule, the “cytotoxic effect (in words)” value ([2]; BxPC3, high MUC1-SEA expressing) was “observed”, the IC50 ([2]; read-out: Equivalent MMAE IC50, BxPC3, ADC expressed as equivalent MMAE) was 12.6 nM and the “CAB and TAB exposure, intraperitoneal higher than intravenous” value ([3]; 10 mg/kg, IP vs IV) was roughly 2 fold. The “% F” value ([3]; CAB, IP 10 mg/kg, plasma) was 183%, the AUCINF ([3]; CAB, IP 10 mg/kg, plasma) was 42.58 µM·h and the AUClast ([3]; CAB, IP 10 mg/kg, plasma) was 39.971 µM·h. The Cmax ([3]; CAB, IP 10 mg/kg, plasma) was 491 nM, the T1/2 ([3]; CAB, IP 10 mg/kg, plasma) was 84 h and the Tmax ([3]; CAB, IP 10 mg/kg, plasma) was 8 h. It also gave an AUCINF ([3]; CAB, IP 10 mg/kg, tumor) of 4.24 µM·h, an AUClast ([3]; CAB, IP 10 mg/kg, tumor) of 2.437 µM·h and a Cmax ([3]; CAB, IP 10 mg/kg, tumor) of 13 nM. It also gave a T1/2 ([3]; CAB, IP 10 mg/kg, tumor) of 266 h, an AUCINF ([3]; CAB, IV 10 mg/kg, plasma) of 23.268 µM·h and an AUClast ([3]; CAB, IV 10 mg/kg, plasma) of 22.9 µM·h. It also gave a C0 ([3]; CAB, IV 10 mg/kg, plasma) of 664 nM, a T1/2 ([3]; CAB, IV 10 mg/kg, plasma) of 57 h and an AUCINF ([3]; CAB, IV 10 mg/kg, tumor) of 3.721 µM·h. It also gave an AUClast ([3]; CAB, IV 10 mg/kg, tumor) of 3.156 µM·h, a Cmax ([3]; CAB, IV 10 mg/kg, tumor) of 15 nM and a T1/2 ([3]; CAB, IV 10 mg/kg, tumor) of 112 h. For the same molecule, the “% F” value ([3]; TAB, IP 10 mg/kg, plasma) was 224%, the AUCINF ([3]; TAB, IP 10 mg/kg, plasma) was 84.403 µM·h and the AUClast ([3]; TAB, IP 10 mg/kg, plasma) was 67.409 µM·h. The Cmax ([3]; TAB, IP 10 mg/kg, plasma) was 761 nM, the T1/2 ([3]; TAB, IP 10 mg/kg, plasma) was 155 h and the Tmax ([3]; TAB, IP 10 mg/kg, plasma) was 8 h. The AUClast ([3]; TAB, IP 10 mg/kg, tumor) was 5.353 µM·h, the Cmax ([3]; TAB, IP 10 mg/kg, tumor) was 25 nM and the AUCINF ([3]; TAB, IV 10 mg/kg, plasma) was 37.755 µM·h. The AUClast ([3]; TAB, IV 10 mg/kg, plasma) was 31.235 µM·h, the C0 ([3]; TAB, IV 10 mg/kg, plasma) was 813 nM and the T1/2 ([3]; TAB, IV 10 mg/kg, plasma) was 135 h. The AUClast ([3]; TAB, IV 10 mg/kg, tumor) was 4.847 µM·h, the Cmax ([3]; TAB, IV 10 mg/kg, tumor) was 20 nM and the “% F” value ([3]; uMMAE, IP 10 mg/kg, plasma) was 98%. It also gave an AUCINF ([3]; uMMAE, IP 10 mg/kg, plasma) of 0.132 µM·h, an AUClast ([3]; uMMAE, IP 10 mg/kg, plasma) of 0.115 µM·h and a Cmax ([3]; uMMAE, IP 10 mg/kg, plasma) of 3.3 nM. The T1/2 ([3]; uMMAE, IP 10 mg/kg, plasma) was 34 h, the Tmax ([3]; uMMAE, IP 10 mg/kg, plasma) was 4 h and the AUCINF ([3]; uMMAE, IP 10 mg/kg, tumor) was 44.127 µM·h. The AUClast ([3]; uMMAE, IP 10 mg/kg, tumor) was 42.947 µM·h, the Cmax ([3]; uMMAE, IP 10 mg/kg, tumor) was 299 nM and the T1/2 ([3]; uMMAE, IP 10 mg/kg, tumor) was 59 h. For the same molecule, the AUCINF ([3]; uMMAE, IV 10 mg/kg, plasma) was 0.134 µM·h, the AUClast ([3]; uMMAE, IV 10 mg/kg, plasma) was 0.122 µM·h and the C0 ([3]; uMMAE, IV 10 mg/kg, plasma) was 19 nM. The T1/2 ([3]; uMMAE, IV 10 mg/kg, plasma) was 51 h, the AUCINF ([3]; uMMAE, IV 10 mg/kg, tumor) was 50.009 µM·h and the AUClast ([3]; uMMAE, IV 10 mg/kg, tumor) was 48.87 µM·h. For the same molecule, the Cmax ([3]; uMMAE, IV 10 mg/kg, tumor) was 334 nM, the T1/2 ([3]; uMMAE, IV 10 mg/kg, tumor) was 63 h and the “cytotoxic effect / growth inhibition (in words)” value (HT-29 cells) was “no cytotoxic effect”. For the same molecule, the “tolerability (in words)” value [4] was “tolerated well”, the Kd ([5]; ADC and unconjugated antibody comparable, read-out: dissociation constant) was roughly 0.04 nM and the kd ([5]; Table 5, single cycle kinetic) was 0.000248 s⁻¹. For the same molecule, the ka ([5]; Table 5, single cycle kinetic, antibody vs ADC) was 6.12e+06 M⁻¹ s⁻¹, the Kd ([5]; Table 5, single cycle kinetic, read-out: KD) was 0.0406 nM and the “binding strength compared to unconjugated parent antibody” value [6] was “similar”.
